{"source": "the supplement of paper PMC10338343", "note": "± gives the standard deviation. Over roughly 5,500 sequences, “pre-steady-state target cleavage rate” has its median near 0.1; the highest 2% begin near 0.64. Only a part is listed here, and it is no random draw.", "data": [{"system": "MIWI (PIWIL1) piRISC loaded with piRNA #2 (30 nt)", "assay": "pre-steady-state target cleavage rate (min^-1); MIWI and MILI are mouse PIWI proteins and EfPiwi is from a freshwater sponge; tags in brackets are library labels; higher = faster piRNA-guided slicing of the target", "settings": "guide: piRNA #2 5'p-UUAGGUAACCCAGUAGAUCCAGAGGAAUUC; auxiliary factor: 500 nM mouse GTSF1", "in_short": "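A transcribed, DNA-blocked target RNA library […] was incubated at 33 °C for 0–8 or 0–960 min with 1 nM active affinity-purified piRISC carrying one synthetic guide, in HEPES–potassium acetate buffer with or without 500 nM GTSF1 partner protein. Uncleaved targets were then sequenced and normalised to depth and to weakly complementary targets. Data from three trials were pooled, with k3 capped at 0.0001 min^-1, and a burst-and-steady-state fit yielded the pre-steady-state cleavage rate.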", "values": [{"sequence": "CAAUUCCUCUGAAUCUACUGGGUUACCUAA", "pre-steady-state target cleavage rate": "0.337 ± 0.057"}, {"sequence": "CUUUUCCUGCUGGAUCUACUGGGUUACCUAA", "pre-steady-state target cleavage rate": "0.459 ± 0.041"}, {"sequence": "CAAUUCGUCUGGAUCUACUGGGUUACCUAA", "pre-steady-state target cleavage rate": "0.463 ± 0.054"}, {"sequence": "CAAUUCCUCUGGAUCUACUGGGUUACCUUAA", "pre-steady-state target cleavage rate": "0.427 ± 0.057"}, {"sequence": "CUUAUCCUCUGGAUCUACUGGGUUCACCUAA", "pre-steady-state target cleavage rate": "0.335 ± 0.045"}, {"sequence": "CUUAAGGAGUGGAUCUACUGGGUUAACCUAA", "pre-steady-state target cleavage rate": "0.0543 ± 0.019"}, {"sequence": "CUUAAGGUCUGGAUCUUCUGGGUUACGUAA", "pre-steady-state target cleavage rate": "0.225 ± 0.034"}, {"sequence": "CUAUUCCUCUGGACUCUACUGGGUUACCUAA", "pre-steady-state target cleavage rate": "0.222 ± 0.039"}, {"sequence": "CUUAAGGAGACCUAGAUCUGGGGUACCUAA", "pre-steady-state target cleavage rate": "< 0.0001"}, {"sequence": "CUUAACCUCUGCAUCAACUGGGUUACCUAA", "pre-steady-state target cleavage rate": "0.281 ± 0.025"}, {"sequence": "CUAUUCCUCUGGAUCUACUGGGUUACGCUAA", "pre-steady-state target cleavage rate": "0.576 ± 0.06"}, {"sequence": "CAAUUCCUGUGGAUCUACUCGGUUACCUAA", "pre-steady-state target cleavage rate": "0.0786 ± 0.019"}, {"sequence": "CUUAAGGACUGGAUCUACUGUGUUACCUAA", "pre-steady-state target cleavage rate": "0.0814 ± 0.048"}, {"sequence": "CUUAAGGACUGGACCUACUGGGUUACCUAA", "pre-steady-state target cleavage rate": "0.155 ± 0.035"}, {"sequence": "CUUAACGUCUGGAUCUACUGGGAUACCUAA", "pre-steady-state target cleavage rate": "0.206 ± 0.018"}, {"sequence": "CUUAAGGACUGGAUCUACUGCGUUACGUAA", "pre-steady-state target cleavage rate": "0.26 ± 0.071"}, {"sequence": "CUUAACCUCUGGAUCUACAGCGUUACCUAA", "pre-steady-state target cleavage rate": "0.113 ± 0.011"}, {"sequence": "CAAUUCAUCUGGAUCUACUGGGUUACCUAA", "pre-steady-state target cleavage rate": "0.509 ± 0.048"}, {"sequence": "CUUAAGGAGACCUAGAACAGGGUUACGUAA", "pre-steady-state target cleavage rate": "< 0.0001"}, {"sequence": "GAAUUCCUCUGCAUCUACUGGGUUACCUUA", "pre-steady-state target cleavage rate": "0.346 ± 0.047"}, {"sequence": "CUUAAGGACAGGAUCUACUGCGUUACCUAA", "pre-steady-state target cleavage rate": "0.0331 ± 0.017"}, {"sequence": "CUUUUCGUCUGGAUCUACAGGGUUACCUAA", "pre-steady-state target cleavage rate": "0.123 ± 0.018"}, {"sequence": "CAAUUCCUCUGAGAUCUACUGGGUUACCUAA", "pre-steady-state target cleavage rate": "0.545 ± 0.057"}, {"sequence": "CUUAACCUCUGGAAGAACUGGGUUACCUAA", "pre-steady-state target cleavage rate": "0.142 ± 0.021"}, {"sequence": "CUUAAGCUCUGCAUGUACUGGGUUACCUAA", "pre-steady-state target cleavage rate": "0.24 ± 0.038"}, {"sequence": "CUUAUCCUCUGGAUCUACUGGGUUUCGUAA", "pre-steady-state target cleavage rate": "0.259 ± 0.051"}, {"sequence": "CUUAAGCUCUGGAUCUACUGCGAUACCUAA", "pre-steady-state target cleavage rate": "0.0812 ± 0.018"}, {"sequence": "CUUUACCUCUGGAUCAACUGGGUUACCUAA", "pre-steady-state target cleavage rate": "0.226 ± 0.024"}, {"sequence": "CUUAACCUCUGGUAUCUACUGGGUUACCUAA", "pre-steady-state target cleavage rate": "0.442 ± 0.055"}, {"sequence": "CUUAAGGAGAGGGUCUACUGGGUUACCUAA", "pre-steady-state target cleavage rate": "0.00949 ± 0.0022"}, {"sequence": "CUUUUCCUCUGGAUCUACUGCGUUACCAAA", "pre-steady-state target cleavage rate": "0.325 ± 0.056"}, {"sequence": "CUUUUCCUCUGCAUCUACUGGGUUUCCUAA", "pre-steady-state target cleavage rate": "0.0862 ± 0.025"}, {"sequence": "CUUAACCUCUGCAACUACUGGGUUACCUAA", "pre-steady-state target cleavage rate": "0.301 ± 0.032"}, {"sequence": "CUUUUCCUCUGGAUCUACUGGGUAUCCUAA", "pre-steady-state target cleavage rate": "0.131 ± 0.029"}, {"sequence": "CUUAACCUGUGGAUCAACUGGGUUACCUAA", "pre-steady-state target cleavage rate": "0.313 ± 0.029"}, {"sequence": "CUUUUCCUCUGGAUCUUCUGGGUUACCUAA", "pre-steady-state target cleavage rate": "0.42 ± 0.05"}, {"sequence": "CAAUUCCUCCUGGAUCUACUGGGUUACCUAA", "pre-steady-state target cleavage rate": "0.577 ± 0.059"}, {"sequence": "CUUUUCCUCUGGAUCAACUGGGUUACCAAA", "pre-steady-state target cleavage rate": "0.3 ± 0.042"}, {"sequence": "CAAUUCCUCUGGAUCUACAGGGUUACCAAA", "pre-steady-state target cleavage rate": "0.198 ± 0.03"}, {"sequence": "CUUAAGGAGAGGAUCUACUGGGUAACCAAA", "pre-steady-state target cleavage rate": "< 0.0001"}, {"sequence": "CUUAUCCACUGGAUCUACUGGGUUAGCUAA", "pre-steady-state target cleavage rate": "0.155 ± 0.04"}, {"sequence": "CUUUUGCUCUGGAUCUACUGGGUUUCCUAA", "pre-steady-state target cleavage rate": "0.112 ± 0.017"}, {"sequence": "CUUAAGCUCUCGAUCUACUGGGUUACCUUA", "pre-steady-state target cleavage rate": "0.178 ± 0.018"}, {"sequence": "CUUAAGCUCUGGAUCUACAGGGUUAGCUAA", "pre-steady-state target cleavage rate": "0.047 ± 0.0092"}, {"sequence": "CUUAAGGAGACCUACUUCUGCGUUACCUAA", "pre-steady-state target cleavage rate": "0.0056 ± 0.0032"}, {"sequence": "GAUUUCCUCUGGAUCUUCUGGGUUACCUAA", "pre-steady-state target cleavage rate": "0.154 ± 0.036"}, {"sequence": "CUUAUCCUCUGGAUCUACUAGGUUACCUAA", "pre-steady-state target cleavage rate": "0.26 ± 0.052"}, {"sequence": "CAAUUGCUGUGGAUCUACUGGGUUACCUAA", "pre-steady-state target cleavage rate": "0.294 ± 0.054"}, {"sequence": "CUUAAGGUCAGGAUCUACUGGGUUACGUAA", "pre-steady-state target cleavage rate": "0.173 ± 0.049"}, {"sequence": "CUUAAGGACUGGAUCCACUGGGUUACCUAA", "pre-steady-state target cleavage rate": "0.154 ± 0.032"}, {"sequence": "CUUAAGCUCUGGAUCUACUGGGUUGACCUAA", "pre-steady-state target cleavage rate": "0.102 ± 0.012"}, {"sequence": "CUUAAGGUGAGGAUCUACUGGGUUACCUAA", "pre-steady-state target cleavage rate": "0.0307 ± 0.01"}, {"sequence": "CAAUUCCACUGGAUGUACUGGGUUACCUAA", "pre-steady-state target cleavage rate": "0.53 ± 0.051"}, {"sequence": "CUUAAGGACUGGAUCUACAGGGUUUCCUAA", "pre-steady-state target cleavage rate": "0.0286 ± 0.01"}, {"sequence": "CUUUUCCUCUGGAUCUACUGGGAUACCUAA", "pre-steady-state target cleavage rate": "0.299 ± 0.033"}, {"sequence": "CAAUGUCCUCUGGAUCUACUGGGUUACCUAA", "pre-steady-state target cleavage rate": "0.16 ± 0.043"}, {"sequence": "CUUUUCCUCUGGAUUACUGGGUUACCUAA", "pre-steady-state target cleavage rate": "0.522 ± 0.037"}, {"sequence": "CAAUUCCUCUGGAUCAACUGGGUUUCCUAA", "pre-steady-state target cleavage rate": "0.268 ± 0.048"}, {"sequence": "CUUAAGCUCUGGAUCUACUGGGUUACCGUAA", "pre-steady-state target cleavage rate": "0.059 ± 0.013"}, {"sequence": "GAAUUCCUCAGGAUCUACUGGCUUACCUAA", "pre-steady-state target cleavage rate": "0.153 ± 0.015"}, {"sequence": "CUUAACCUGUGGAUCUACUGGGUUACGUAA", "pre-steady-state target cleavage rate": "0.429 ± 0.05"}, {"sequence": "CAAUUCCUCUGGAUCUAGUGGGUUAGCUAA", "pre-steady-state target cleavage rate": "0.0711 ± 0.022"}, {"sequence": "CAGAUUCCUCUGGAUCUACUGGGUUACCUAA", "pre-steady-state target cleavage rate": "0.438 ± 0.064"}, {"sequence": "CUUUUCCUCUGGAUAUACUGGGUUACCUAA", "pre-steady-state target cleavage rate": "0.628 ± 0.04"}, {"sequence": "CUUAUCCUCUGGAUCUACUGGGUUUGGAUA [g7:g26:cont:t1A]", "pre-steady-state target cleavage rate": "0.00371 ± 0.0037"}, {"sequence": "CAAUUCUCUGGAUCUACUGGGUUACCUAA", "pre-steady-state target cleavage rate": "0.369 ± 0.056"}, {"sequence": "CUUUUCCUCUGGAUCUAGUGGCUUACCUAA", "pre-steady-state target cleavage rate": "0.00903 ± 0.0047"}, {"sequence": "CUUAAGGUGUGGAUCUACUGGGUUUCCUAA", "pre-steady-state target cleavage rate": "0.0165 ± 0.0049"}, {"sequence": "CUUAAGCUCUGGUUCAACUGGGUUACCUAA", "pre-steady-state target cleavage rate": "0.252 ± 0.022"}, {"sequence": "GAAUUCCUCUGGAUCUACUGGGUUACUUAA", "pre-steady-state target cleavage rate": "0.555 ± 0.05"}, {"sequence": "CUUAACCUCUGCGAUCUACUGGGUUACCUAA", "pre-steady-state target cleavage rate": "0.286 ± 0.032"}, {"sequence": "CUUAACCUCUGGAUCUACUGGGUUUCCUAA", "pre-steady-state target cleavage rate": "0.168 ± 0.028"}]}]}
